Where a name gives a salt, the structure may show the parent alone. ± gives the standard deviation of the averaged measurements. The campaign covered roughly 1,000 compounds. About 15 (2%) showed an effect of 50% or more. The list shows a part of the results.
The molecules below were run on HFF (assay: uninfected host cell viability relative to vehicle control; higher = less host cell toxicity). Conditions: 5 µM; 72 h; oxygen 21 %.
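Further: confluent HFF monolayers, run in parallel with the Toxoplasma growth screen as a host toxicity counterscreen.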

| Compound | uninfected host cell viability |
| --- | --- |
| COc1ccc2[nH]cc(CCNC(C)=O)c2c1 [Melatonin] | 96.1 ± 1.4% |
| O=Nc1c(-c2c(O)[nH]c3ccccc23)[nH]c2ccccc12 [Indirubin-3'-oxime] | 75.1 ± 6.9% |
| CCN(Cc1ccncc1)C(=O)C(CO)c1ccccc1 (stereo unspecified) [Tropicamide] | 86.8 ± 8.4% |
| O=C(NCCNCC(O)COc1ccc(O)cc1)N1CCOCC1 (stereo unspecified) [Xamoterol hemifumarate] | 85.4 ± 3.2% |
| Nc1nc2c(nc(Br)n2[C@@H]2O[C@@H]3COP(=O)(O)O[C@H]3[C@H]2O)c(=O)[nH]1 [8-Bromo-cGMP, sodium salt] | 89.8 ± 1.7% |
| Cc1c(C(=O)NC2CCCCC2)sc2nc3ccc(N)cc3n12 | 78.76 ± 0.33% |
| COc1ccc(S(=O)(=O)N2c3ccc(Cl)cc3[C@](O)(c3ccccc3Cl)[C@@H]2C(=O)N2CCC[C@H]2C(N)=O)cc1OC | 87.61 ± 0.29% |
| O=c1oc(-c2ccc(C(F)(F)F)cc2)nn1Cc1cc(Cl)ccc1O | 95.1 ± 1% |
| CCCC(=O)Nc1ncnc2c1ncn2[C@@H]1O[C@@H]2COP(=O)(O)O[C@H]2[C@H]1OC(=O)CCC [Dibutyryl-cAMP, sodium salt] | 84.83 ± 0.28% |
| NC(C(=O)O)c1cc(O)cc(O)c1 (racemic) | 86.3 ± 2.7% |
| Fc1ccc(-c2nc3n(c2-c2ccncc2)CCS3)cc1 | 67 ± 4.2% |
| N[C@@H](C(=O)O)c1ccc(C(=O)O)c(C(=O)O)c1 | 89 ± 7.8% |
| O=Nc1ccc(O)c2ncccc12 | 54.96 ± 0.076% |
| CC[N+](C)(CC)CC(=O)Nc1c(C)cccc1C [N-Methyllidocaine iodide] | 87.9 ± 3.1% |
| Nc1ccc(-c2cccc3c(=O)cc(N4CCOCC4)oc23)cc1 | 77 ± 0.83% |
| CC1=C(/C=C/C(C)=C/C=C/C(C)=C/C(=O)Nc2ccc(O)cc2)C(C)(C)CCC1 [Fenretinide] | 75.39 ± 0.053% |
| CC(C)CC(NC(=O)OCC1c2ccccc2-c2ccccc21)C(=O)O (stereo unspecified) | 96.67 ± 0.32% |
| O=C1C(=O)N(Cc2ccc(Cl)c(Cl)c2)c2ccccc21 [Apoptosis Activator 2] | 90.7 ± 1.9% |
| Cc1ccc(/C=N/NC(=O)c2ccccc2Oc2ccccc2)o1 | 96.6 ± 2.1% |

| Compound | uninfected host cell viability |
| --- | --- |
| COc1cc2nc(N3CCN(C(=O)C4CCCO4)CC3)nc(N)c2cc1OC (stereo unspecified) [Terazosin hydrochloride] | 84.4 ± 1.8% |
| C[C@@H](CN1CCC(n2c(=O)[nH]c3cc(Cl)ccc32)CC1)NC(=O)c1ccc2ccccc2c1 | 94.4 ± 5.7% |
| O=C(O)COc1cccc(-c2ocnc2-c2nc(-c3ccccc3)c(-c3ccccc3)o2)c1 | 105 ± 3.5% |
| Cn1cc(C(=O)OCC2CCN(CCNS(C)(=O)=O)CC2)c2ccccc21 | 77 ± 1.9% |
| COc1ccc(Nc2nccc(NCCO)n2)cc1 [Cardiogenol C hydrochloride] | 88.6 ± 2.6% |
| FC(F)(F)c1ccc(/C=C/c2nc(COc3ccc(CCCCn4ccnn4)cc3)co2)cc1 | 109.3 ± 0.5% |
| CC(C)NCCN(C(C)C)S(=O)(=O)c1ccc(Cl)cc1Cl | 88.9 ± 1% |
| CN(Cc1ccccc1)C(=O)[C@H](Cc1ccc2ccccc2c1)NC(=O)[C@@H]1C[C@@H](O)CN1C(=O)c1cn(C)c2ccccc12 | 83.97 ± 0.68% |
| Cc1cccc(Nc2cc(Cl)nc(SCC(=O)O)n2)c1C | 83.4 ± 5.4% |
| Cn1cc(C2=C(c3ccc(Cl)cc3Cl)C(=O)NC2=O)c2ccccc21 | 72.6 ± 4.2% |
| CN(N=O)C(=O)N[C@@H](C=O)[C@@H](O)[C@H](O)[C@H](O)CO [Streptozocin] | 86.9 ± 5.4% |
| O=C(NC(NC(=S)Nc1ccc(F)c([N+](=O)[O-])c1)C(Cl)(Cl)Cl)C(c1ccccc1)c1ccccc1 (stereo unspecified) | 86.1 ± 11% |
| Cc1ccc(C(=O)Nc2ccc(S(=O)(=O)O)c3cc(S(=O)(=O)O)cc(S(=O)(=O)O)c23)cc1NC(=O)c1cccc(NC(=O)Nc2cccc(C(=O)Nc3cc(C(=O)Nc4ccc(S(=O)(=O)O)c5cc(S(=O)(=O)O)cc(S(=O)(=O)O)c45)ccc3C)c2)c1 [Suramin hexasodium salt] | 91.2 ± 1.9% |
| CCc1c2c(nc3ccc(OC(=O)N4CCC(N5CCCCC5)CC4)cc13)-c1cc3c(c(=O)n1C2)COC(=O)[C@]3(O)CC | 97.4 ± 3.2% |
| Cc1ccc(/C(=C\CN2CCCC2)c2ccccn2)cc1 [trans-Triprolidine hydrochloride] | 95.4 ± 1.1% |
| Nc1ncnc2nc(-c3ccc(N4CCOCC4)nc3)cc(-c3cccc(Br)c3)c12 [ABT 702 dihydrochloride] | 75.7 ± 2.7% |
| C=CCn1c(=O)n([C@@H]2O[C@H](CO)[C@@H](O)[C@H]2O)c2nc(N)[nH]c(=O)c21 | 86.7 ± 1.6% |
| CCn1c(=O)[nH]c2ccccc21 | 95.8 ± 5.6% |
| O=C(O)C1=CCNCC1 [Isoguvacine hydrochloride] | 88.42 ± 0.37% |

| Compound | uninfected host cell viability |
| --- | --- |
| CS(=O)(=O)Nc1ccc([N+](=O)[O-])cc1Oc1ccccc1 [Nimesulide] | 96.85 ± 0.37% |
| CC#CCOC(=O)c1c(C)nc2sc3c(c2c1N)CCC(O)C3 (stereo unspecified) | 87.4 ± 1.4% |
| CCCCCCCCCCC(C)(C)C(=O)Nc1c(OC)cc(OC)cc1OC | 117 ± 4.1% |
| CCOC(=O)c1c(C)[nH]c2ccc3c(c12)CN1CCc2cc(OC)ccc2C1O3 (stereo unspecified) | 96.1 ± 2.8% |
| CC[C@@H]1Cn2c(c3nc(-c4ccccc4)nc-3n(C)c2=O)N1 | 89.2 ± 4.1% |
| CC(=O)N1CCN(c2ccc(OCC3COC(Cn4ccnc4)(c4ccc(Cl)cc4Cl)O3)cc2)CC1 (stereo unspecified) [Ketoconazole] | 87 ± 2.2% |
| Cc1[nH]c(/C=C2\C(=O)Nc3ccccc32)c(C)c1CCC(=O)O | 82.9 ± 1.8% |
| CN(C)CCCCSC(=N)N | 101.2 ± 0.9% |
| CC(C)NCC(O)c1ccc(NS(C)(=O)=O)cc1 (stereo unspecified) [Sotalol hydrochloride] | 92.2 ± 11% |
| Oc1ccc(Nc2nc(-c3ccc(Cl)cc3)cs2)cc1 | 89.4 ± 1.8% |
| COc1cc2ncnc(Nc3ccc(Cl)cc3F)c2cc1OC | 79.94 ± 0.48% |
| CC(=O)NNC(=O)N1Cc2ccccc2Oc2ccc(Cl)cc21 | 88.9 ± 1.7% |
| OC1CCC(Nc2nc(-c3ccccc3)nc3[nH]ccc23)CC1 (stereo unspecified) | 85.37 ± 0.31% |
| CCCCCCN(CCCCCC)C(=O)Cc1c(-c2ccc(F)cc2)[nH]c2ccccc12 | 104.6 ± 0.91% |
| O=c1c(-c2ccc(O)cc2)coc2cc(O)cc(O)c12 [Genistein] | 84.8 ± 3.4% |
| CC(C)C[C@H](NC(=O)[C@@H](O)[C@H](N)Cc1ccccc1)C(=O)O [Bestatin] | 84.7 ± 2.2% |
| CNC(=C[N+](=O)[O-])NCCSCc1ccc(CN(C)C)o1 [Ranitidine hydrochloride] | 96.8 ± 2.2% |
| COC(=O)[C@H]1[C@H]2C[C@@H]3c4[nH]c5cc(OC)ccc5c4CCN3C[C@H]2C[C@@H](OC(=O)c2cc(OC)c(OC)c(OC)c2)[C@@H]1OC [Reserpine] | 88.396 ± 0.04% |
